Reference: the supplement of paper PMC10115384

B1: ADI-67952 (protein)
chain 1: QLQLQESGPGLVKPSETLSLTCTVSGASISSSSYYWGWIRQPPGKGLEWIGNIYYSGSTYYKASLKSRVTISVDTSKNQFSLKLNSVTAADTAVYFCARHLVPTFSYDSRGYSRIYPYWYFDLWGRGTLVTVSS
chain 2: QSALTQPASVSGSPGQSITISCTGTSSDIGSYNLVSWYRQHPGKAPELLIYDVNKRPSGVSNRFSGSKSGNTASLTISGLQDEDEADYYCCSYAGSGTFVLFGGGTKLTVL
B2: ADI-67968 (protein)
chain 1: QVQLVQSGAEAKKPGASVKVSCKASGYTFTDYYLHWVRQAPGQGLEWMGIINPSGGSIAYAQKFQDRVTLTRDTSTSTVYMKLSSLRSEDTAVYYCARDLAVVPAALGLDYWGQGTLVTVSS
chain 2: EIVLTQSPATLSLSPGERATLSCRASQSVSTYLAWYQQKPGQAPRLLIYDASNRATGIPARFSGSGSGTHFTLTISSLEPEDFAVYYCQQRNNWPPFTFGPGTKVDIK
B3: ADI-67120 (protein)
chain 1: QVQLVESGGGAVQPGRSLRLSCAASGFTFSNYGMHWVRQAPGKGLEWVAVMSYDGGDKHYADSVKGRFTISRDNSMHTLYLQMNSLRPEDTAVYYCAKAGYGYAYPWTYFDYWGQGTLVTVSS
chain 2: DIQMTQSPSTLSASVGDRVTITCRASQSISTWLAWYQQKPGKAPKLLIYEASGLESGVPSRFSGSGSGTEFTLTITSLQPDDFATYYCQQYNSYWTFGQGTKVEIK
B4: ADI-67122 (protein)
chain 1: EVQLVESGGGLVQPGGSLRLSCIVSEFTFDSYWMSWVRQAPGKGLEWVANIRHDGSEKYYVDSVRGRFTISRDNAKNSLYLQMNSLRAEDSAVYYCARQSIYHDFTSGVGYSYYYTMDVWGQGTTVTVSS
chain 2: SSELTQDPPVSVALGQTVTITCQGDSLRIYFATWYRQKAGQAPVLVIYGKNNRPSGIPDRFSGSRSGDTASLTITGAQAEDEADYYCSSRDRSGNSFVFGTGTKVTVL
B5: ADI-67132 (protein)
chain 1: EVQLVESGGGLVQPGGSLRLSCAASGFTFSSYDMHWVRQATGKGLEWVSLIGTAGDTYYPDSVKGRFTISRENAKNSLYLQMNSLRAGDTAVYYCARATTNMVRGVSPLDYYYGMDVWGQGTTVTVSS
chain 2: DIQMTQSPSSLSASVGDRVTITCRASQSISSYLNWYQQKPGKGPKLLIYAASSLQSGVPSRFSGSGSGTDFTLTISSLQPEDFATYYCQQSYNIPPITFGQGTRLEIK
B6: ADI-67133 (protein)
chain 1: QVQLVESGGGVVQPGRSLRLSCAASGFPFNNYAMHWVRQAPGKGPEWVAVISYDGSNKYYGDSVKGRFTISRDNSKSTLYLQMDSLRTEDTAVYYCAKGLSYGYVYFFDYWGQGTLVTVSS
chain 2: DIQMTQSPSSLSASVGDRVTITCQASQDITNYLNWYQQKPGKAPKLLIYDASDLETGVPLRFSGSGSGTDFTFTISSLQHEDIATYYCQQYNNLPITFGQGTRLEIK
B7: ADI-67136 (protein)
chain 1: QITLKESGPTLVKPTQTLTLTCTFSGFSLSSNGVGVGWIRQPPGKALEWLALIYWNDEKRYSPSLKSRLTITKDTSKNHVVLTVTNMDPVDTATYSCAHSYYYDARGYCFDYWGQGTLVTVSS
chain 2: DIQMTQSPSSVSASVGDRVTITCRASQGIVSWLAWYQQKPGKAPKLLIYDASTLQSGVPSRFSGSGSGTDFTLTISSLQPEDFATYYCQQANNFPITFGQGTRLEIK
B8: ADI-67216 (protein)
chain 1: QVQLQESGPGLVKPSQTLSLTCTVSGGSISSGGYYWTWIRQHPGKGLEWIGYIYYSGTTYYNPSLKSRVIISVDTSKNQFSLRLNSVTAADTAVYFCARGSSWRYNWFDPWGQGTLVTVSS
chain 2: SYELTQPPSVSVSPGQTASITCSGDKLGDKYACWYQQKPGQSPVLVIFEDNKRPSGIPERFSGANSGNTATLTISGTQAMDEADYYCQAWDSSTVIFGGGTKLTVL
B9: ADI-67217 (protein)
chain 1: QVQLVQSGAEVKRPGASVKVSCKVSGYTLTELSIHWVRQAPGKGLEWMGGFDPEDAETIYAQNFQGRVTMTEDTSTDTAYMDLRSLRSDDTAVYYCATAFAVRLGELSSYSYYYGMDVWGQGTTVTVSS
chain 2: DIVMTQTPLSSPVTLGQPASISCRSNQSLVHTDGNTYLSWLHQRPGQPPRLLIYMISNRFSGVPDRFSGSGAETDFTLKISRVEAEDVGVYYCMQARHFPHTFGQGTKVEIK
B10: ADI-67475 (protein)
chain 1: EVQLLESGGGLVQPGGSLRLSCAASGFTFSSHAMTWVRQAPGKGLQWVSTISTSGDDTFYADSLKGRITISRDNSRNTLYLEMNSLRGEDTAVYYCAKGSSGAYPGSRTFDIWGQGTMVTVSS
chain 2: DIVMTQSPDSLAVSLGERATINCKSSQNVLYSSNNKNCLAWYQQKPGQPPNLLIYWASTRESGVPDRFSGSGSGTDFTLTISSLQAEDVAVYYCQQYCRTPYTFGQGTKLEIK

Molecular target: SARS-CoV-2 index (Wuhan-Hu-1) spike pseudovirus
Assay: pseudovirus neutralization IC50; higher = weaker neutralization
Settings: system: VSV particle, 293T-ACE2 cells
Experimental: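 Single-round reporter pseudovirus mixed with dilutions of yeast-made human IgG and put on ACE2-bearing cells; IC50 from the dose curve.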

Binder | pseudovirus neutralization IC50 [µg/mL]
B1 | > 1
B2 | > 1
B3 | > 1
B4 | > 1
B5 | > 1
B6 | 0.527
B7 | > 1
B8 | > 1
B9 | > 1
B10 | > 1

Human monoclonal antibodies (heavy:light variable regions, translated from the printed DNA). IC50 against SARS-CoV-2 spike pseudoviruses, on VSV particles in 293T-ACE2 cells (24 h) or MLV particles in HeLa-ACE2 cells (72 h); lower = stronger; >1.0 µg/ml as printed. No active / inactive call per row; the paper counts an IC50 of 0.4 µg/ml or less on any variant as neutralizing. Only 98 of the paper's 459 antibodies have neutralization values; the two systems are not on one scale.
